# About 100 (0.036%) of roughly 280,000 compounds were called active. The shares of active, inactive and inconclusive entries below differ from those in the screen. Calls follow the shape of the dose curve; as a rule, active = well fitted inhibition curve with a large enough effect in the signal ratio, with a control signal flat (not every such curve was filed as active); inconclusive = small, poorly fitted or top-dose-only effect, or effect the other way, or a change in a side signal; inactive = no such curve, though single readings can be large or run the other way; the % refers to the signal ratio. Potencies of inconclusive entries are doubtful fits and often do not repeat. A note “side channel” means that the fit belongs to a control or component signal, not to the main read-out.
# Biological target: Muscleblind-like protein 1 (Homo sapiens) (UniProt Q9NR56)
# Sequence of UniProt Q9NR56 (Q9NR56 whole entry, looked up): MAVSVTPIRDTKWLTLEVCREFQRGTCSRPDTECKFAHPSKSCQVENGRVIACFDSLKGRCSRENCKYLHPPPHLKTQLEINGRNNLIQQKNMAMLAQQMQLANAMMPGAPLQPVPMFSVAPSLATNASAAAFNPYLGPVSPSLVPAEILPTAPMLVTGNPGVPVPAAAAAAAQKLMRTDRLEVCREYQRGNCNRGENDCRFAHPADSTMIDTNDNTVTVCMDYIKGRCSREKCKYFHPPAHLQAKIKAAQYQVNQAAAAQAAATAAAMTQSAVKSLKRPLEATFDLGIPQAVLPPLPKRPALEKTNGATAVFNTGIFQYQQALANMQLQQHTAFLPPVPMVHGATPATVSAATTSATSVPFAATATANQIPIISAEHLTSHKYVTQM
# Assay: qHTS Assay for Inhibitors of MBNL1-poly(CUG) RNA binding
# Settings: TR-FRET MBNL1-His/biotin-(CUG)12 binding, 665/545 ratio; series mostly up to 57.5 µM
# How it was run: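 TR-FRET between His-tagged MBNL1 and biotin-(CUG)12 RNA, detected with Tb anti-His antibody (0.055 ng/ul) and streptavidin-XL665 (5 nM), 60 min at room temperature. Compounds titrated 92 nM to 58 uM; 665/545 nm ratio normalized to buffer and complex controls.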
# Potency is read from the fitted curve at half-maximal effect; tags tell the direction and shape of the fitted curve or compound fluorescence and quenching.
row,SMILES,Potency
1,Cc1ccc(NC(=O)c2cc([N+](=O)[O-])ccc2N2CCOCC2)cc1C,"inconclusive: 14.1 µM [quencher, side channel, partial curve]"
2,O=C(NCCN1C(=O)S/C(=C\c2ccccc2F)C1=O)C1CCN(S(=O)(=O)c2cccs2)CC1,"inconclusive: 12.6 µM [quencher, side channel, single point]"
3,Cc1cnnn1-c1ccc([N+](=O)[O-])cc1,"inconclusive: 12.6 µM [quencher, side channel, partial curve]"
4,O=C(NC1CC1)c1cc2c(s1)-c1ccccc1OC2,"inconclusive: 12.6 µM [quencher, side channel, partial curve]"
5,Cc1sc2cc(-c3cccc([N+](=O)[O-])c3)c(-c3cccc([N+](=O)[O-])c3)c[n+]2c1C,"inconclusive: 15.8 µM [quencher, side channel, partial curve]"
6,COc1ccccc1N1C(=O)N(C(C)=O)C2C1Nc1ccccc1N2C (configuration not stated),"inconclusive: 3.98 µM [quencher, side channel, full curve, poor fit]"
7,CC(=O)OCCn1c(=O)c2cc3c(=O)n(CCOC(C)=O)c(=O)c3cc2c1=O,"inconclusive: 4.47 µM [quencher, side channel, full curve]"
8,CCn1c(O)c(N=NC(=O)CNC(=O)/C=C/c2ccco2)c2ccccc21,"inconclusive: 15.8 µM [quencher, partial curve]"
9,COc1cccc(/C=N/Nc2ccc(C(=O)O)cc2)c1O,"inconclusive: 28.2 µM [quencher, side channel, partial curve]"
10,CCOC(=O)N1CCN(C(=O)c2ccc3c(=O)n(CCc4ccccc4)c(=S)[nH]c3c2)CC1,inactive
11,O=C(O)c1cc(NCc2ccc(F)cc2)ccc1N1CCOCC1,inactive
12,Cc1ccnc2nc(C(=O)Nc3nc(-c4ccccn4)cs3)nn12,inactive
13,CCn1c(CNc2ccc(C(=O)O)cc2)nc2ccccc21,inactive
14,COc1cccc(-c2cn3nc(C)c(C)nc3n2)c1,"inconclusive: 15.8 µM [quencher, side channel, partial curve]"
15,COc1ccccc1NC(=O)Cn1c(=O)c(N(C)C)c(N)n(C)c1=O,"inconclusive: 5.62 µM [fluorescent, side channel, single point]"
16,COc1cccc(-c2cc(C(=O)Nc3cccc(O)c3)no2)c1,inactive
17,CCOCCCNC(=S)NCCNc1nc2ccc(C)cc2cc1C#N,"inconclusive: 12.6 µM [quencher, side channel, single point]"
